A lower IC50 marks a more sensitive line; where the fit passes the top or lowest dose, that dose stands as a limit. AUC is the area under the same curve over the 256-fold range up to the top dose, as a fraction; it is 1 without any effect and falls as sensitivity rises. Where the top dose is marked as inferred, it was derived from the fitted curves, not read from the paper.
Experiments:
Test in all cases: Viability of human cancer cell lines after 72 h of drug (GDSC screen)
CCT007093 = compound: O=C1/C(=C/c2cccs2)CC/C1=C\c1cccs1 [CCT007093]; settings: top dose 6.6 µM; top dose inferred
Experimental: (§1)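 Human cancer cell lines in 384-well plates, medium with 10% serum, drug for 72 h over a 256-fold dose range (nine 2-fold or five 4-fold steps up to the top dose). Adherent lines were fixed and stained with the nucleic acid dye Syto60, suspension lines read with resazurin; signal relative to control wells, capped at 0 and 100%. One two-parameter sigmoid per drug and line, fitted in a mixed model over all curves with the slope shared within a line.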

QL-XII-47 = compound: C=CC(=O)N1CCc2ccc(-n3c(=O)ccc4cnc5ccc(-c6cnn(C)c6)cc5c43)cc21 [QL-XII-47]; settings: top dose 10.24 µM; top dose inferred
Experimental: as §1

KIN001-266 = compound: CCN1CCC(n2cc(CNc3cc(Cl)c4ncc(C#N)c(Nc5ccc(F)c(Cl)c5)c4c3)nn2)CC1 [KIN001-266]; settings: top dose 20 µM; top dose inferred
Experimental: as §1

| Cell Line | AUC (CCT007093) | IC50 (CCT007093) [µM] | AUC (QL-XII-47) | IC50 (QL-XII-47) [µM] | AUC (KIN001-266) | IC50 (KIN001-266) [µM] |
| --- | --- | --- | --- | --- | --- | --- |
| A549 (lung adenocarcinoma, adherent) | 0.979 | > 6.6 |  |  |  |  |
| BALL-1 (B-cell leukaemia, suspension) | 0.997 | > 6.6 |  |  |  |  |
| BT-549 (breast, adherent) | 0.977 | > 6.6 |  |  |  |  |
| CADO-ES1 (Ewing sarcoma, suspension) | 0.96 | > 6.6 | 0.516 | 0.71 | 0.824 | 12.2 |
| CHP-134 (neuroblastoma, suspension) |  |  | 0.727 | 3.43 | 0.761 | 8.94 |
| CL-34 (large intestine, adherent) | 0.987 | > 6.6 |  |  |  |  |
| CL-40 (large intestine, adherent) | 0.969 | > 6.6 |  |  |  |  |
| CML-T1 (chronic myeloid leukaemia, suspension) | 0.984 | > 6.6 |  |  |  |  |
| COR-L303 (small cell lung carcinoma, suspension) |  |  | 0.602 | 1.2 | 0.872 | 18 |
| COR-L311 (small cell lung carcinoma, suspension) |  |  | 0.304 | 0.172 | 0.873 | > 20 |
| COR-L321 (lung, suspension) | 0.984 | > 6.6 | 0.475 | 0.546 | 0.858 | 16.4 |
| CRO-AP2 (B-cell lymphoma, suspension) | 0.989 | > 6.6 |  |  |  |  |
| D-247MG (glioma, adherent) | 0.887 | > 6.6 | 0.968 | > 10.2 | 0.847 | > 20 |
| D-336MG (glioma, adherent) | 0.955 | > 6.6 | 0.588 | 1.2 | 0.882 | > 20 |
| D-423MG (glioma, adherent) | 0.96 | > 6.6 | 0.676 | 2.23 | 0.834 | 17.3 |
| D-566MG (glioma, adherent) | 0.964 | > 6.6 | 0.728 | 2.82 | 0.866 | 17.4 |
| DIFI (large intestine, adherent) | 0.988 | > 6.6 |  |  |  |  |
| DOV13 (ovary, adherent) | 0.977 | > 6.6 | 0.971 | > 10.2 | 0.851 | 19.2 |
| EMC-BAC-1 (lung adenocarcinoma, adherent) |  |  | 0.655 | 1.84 | 0.792 | 10.5 |
| EMC-BAC-2 (lung adenocarcinoma, adherent) | 0.978 | > 6.6 | 0.711 | 2.87 | 0.872 | > 20 |
| ESO26 (oesophagus, adherent) | 0.986 | > 6.6 | 0.511 | 0.684 | 0.702 | 4.45 |
| ESO51 (oesophagus, semi-adherent) | 0.855 | > 6.6 | 0.612 | 1.47 | 0.884 | > 20 |

| Cell Line | AUC (CCT007093) | IC50 (CCT007093) [µM] | AUC (QL-XII-47) | IC50 (QL-XII-47) [µM] | AUC (KIN001-266) | IC50 (KIN001-266) [µM] |
| --- | --- | --- | --- | --- | --- | --- |
| EW-22 (Ewing sarcoma, adherent) | 0.932 | > 6.6 |  |  |  |  |
| FLO-1 (oesophagus, adherent) | 0.975 | > 6.6 | 0.688 | 2.74 | 0.799 | 15.1 |
| GA-10 (Burkitt lymphoma, suspension) | 0.991 | > 6.6 |  |  |  |  |
| H4 (glioma, adherent) | 0.971 | > 6.6 | 0.824 | 5.98 | 0.882 | > 20 |
| H2810 (mesothelioma, adherent) | 0.981 | > 6.6 |  |  |  |  |
| HCC-366 (non-small cell lung carcinoma, adherent) | 0.988 | > 6.6 |  |  |  |  |
| Hey (ovary, adherent) | 0.988 | > 6.6 | 0.724 | 2.65 | 0.875 | 17.7 |
| Hs746T (stomach, adherent) | 0.98 | > 6.6 | 0.572 | 1.08 | 0.922 | > 20 |
| IGROV-1 (ovary, adherent) | 0.97 | > 6.6 |  |  |  |  |
| JEKO-1 (B-cell lymphoma, suspension) | 0.962 | > 6.6 |  |  |  |  |
| JHOS-2 (ovary, adherent) | 0.977 | > 6.6 | 0.751 | 3.87 | 0.66 | 3.76 |
| JHOS-3 (ovary, adherent) | 0.98 | > 6.6 | 0.814 | 7.6 | 0.917 | > 20 |
| JHOS-4 (ovary, adherent) | 0.976 | > 6.6 |  |  |  |  |
| Jurkat (T-cell leukaemia, suspension) | 0.991 | > 6.6 |  |  |  |  |
| K-562 (chronic myeloid leukaemia, suspension) | 0.985 | > 6.6 | 0.642 | 1.56 | 0.849 | 14.3 |
| KARPAS-1106P (B-cell lymphoma, suspension) | 0.993 | > 6.6 |  |  |  |  |
| KASUMI-1 (acute myeloid leukaemia, suspension) | 0.944 | > 6.6 | 0.455 | 0.484 |  |  |
| KATOIII (stomach, semi-adherent) | 0.99 | > 6.6 |  |  |  |  |
| KMRC-20 (kidney, adherent) | 0.989 | > 6.6 | 0.901 | > 10.2 | 0.92 | > 20 |
| KMS-11 (myeloma, suspension) | 0.981 | > 6.6 | 0.53 | 0.761 | 0.877 | 15.1 |
| KNS-62 (lung squamous cell carcinoma, adherent) | 0.95 | > 6.6 |  |  |  |  |
| KYAE-1 (oesophagus, suspension) | 0.983 | > 6.6 | 0.421 | 0.379 | 0.817 | 12.7 |

| Cell Line | AUC (CCT007093) | IC50 (CCT007093) [µM] | AUC (QL-XII-47) | IC50 (QL-XII-47) [µM] | AUC (KIN001-266) | IC50 (KIN001-266) [µM] |
| --- | --- | --- | --- | --- | --- | --- |
| MEL-HO (melanoma, adherent) | 0.983 | > 6.6 |  |  |  |  |
| MHH-CALL-2 (B-cell leukaemia, suspension) | 0.991 | > 6.6 |  |  |  |  |
| MKN7 (stomach, adherent) | 0.933 | > 6.6 |  |  |  |  |
| MM1S (myeloma, suspension) | 0.982 | > 6.6 |  |  |  |  |
| MOLM-16 (acute myeloid leukaemia, suspension) | 0.945 | > 6.6 |  |  |  |  |
| MOLT-13 (T-cell lymphoblastic leukaemia, suspension) | 0.985 | > 6.6 | 0.578 | 1.02 | 0.88 | 16.4 |
| NB17 (neuroblastoma, adherent) |  |  | 0.984 | > 10.2 | 0.795 | 10.9 |
| NCC010 (kidney, adherent) | 0.945 | > 6.6 |  |  |  |  |
| NCC021 (kidney, adherent) | 0.985 | > 6.6 | 0.845 | 9.26 | 0.866 | > 20 |
| NCI-H146 (small cell lung carcinoma, suspension) | 0.994 | > 6.6 |  |  |  |  |
| NCI-H508 (large intestine, semi-adherent) | 0.938 | > 6.6 |  |  |  |  |
| NCI-H630 (large intestine, adherent) | 0.984 | > 6.6 | 0.845 | 8.24 | 0.863 | 19.5 |
| NCI-H835 (lung carcinoid, suspension) | 0.99 | > 6.6 |  |  |  |  |
| NCI-H929 (myeloma, suspension) | 0.966 | > 6.6 |  |  |  |  |
| NCI-H1105 (small cell lung carcinoma, suspension) | 0.993 | > 6.6 |  |  |  |  |
| NCI-H1341 (small cell lung carcinoma, suspension) | 0.991 | > 6.6 |  |  |  |  |
| NCI-H1650 (lung adenocarcinoma, adherent) | 0.96 | > 6.6 |  |  |  |  |
| NCI-H2066 (small cell lung carcinoma, adherent) | 0.965 | > 6.6 |  |  |  |  |
| NCI-N87 (stomach, adherent) | 0.935 | > 6.6 |  |  |  |  |
| NUGC-4 (stomach, adherent) | 0.988 | > 6.6 | 0.964 | > 10.2 | 0.562 | 1.85 |
| OACM5-1 (oesophagus, semi-adherent) | 0.984 | > 6.6 | 0.42 | 0.377 | 0.754 | 7.53 |
| OACp4C (oesophagus, adherent) | 0.979 | > 6.6 | 0.59 | 1.18 | 0.705 | 5.35 |

| Cell Line | AUC (CCT007093) | IC50 (CCT007093) [µM] | AUC (QL-XII-47) | IC50 (QL-XII-47) [µM] | AUC (KIN001-266) | IC50 (KIN001-266) [µM] |
| --- | --- | --- | --- | --- | --- | --- |
| OC-314 (ovary, adherent) | 0.976 | > 6.6 | 0.758 | 3.09 | 0.555 | 1.73 |
| OCI-LY7 (B-cell lymphoma, suspension) | 0.997 | > 6.6 |  |  |  |  |
| OCUM-1 (stomach, adherent) | 0.987 | > 6.6 | 0.979 | > 10.2 | 0.975 | > 20 |
| OV-7 (ovary, adherent) | 0.96 | > 6.6 | 0.57 | 1.09 | 0.801 | 16.4 |
| OV-17R (ovary, adherent) | 0.98 | > 6.6 | 0.7 | 2.97 | 0.699 | 5.75 |
| OV-56 (ovary, adherent) | 0.988 | > 6.6 | 0.615 | 1.31 | 0.887 | > 20 |
| OVCA420 (ovary, adherent) | 0.976 | > 6.6 | 0.953 | > 10.2 | 0.9 | > 20 |
| PWR-1E (prostate, adherent) | 0.987 | > 6.6 |  |  |  |  |
| RCH-ACV (B-cell leukaemia, suspension) | 0.989 | > 6.6 |  |  |  |  |
| RH-18 (rhabdomyosarcoma, adherent) | 0.975 | > 6.6 | 0.829 | 7.68 |  |  |
| RL95-2 (endometrium, adherent) |  |  | 0.961 | > 10.2 | 0.868 | 18 |
| SK-GT-2 (stomach, adherent) | 0.978 | > 6.6 |  |  |  |  |
| SK-MEL-31 (melanoma, adherent) | 0.985 | > 6.6 |  |  |  |  |
| SKM-1 (haematopoietic neoplasm, suspension) | 0.887 | > 6.6 |  |  |  |  |
| SNU-175 (large intestine, suspension) |  |  | 0.775 | 3.8 | 0.871 | 16.9 |
| SNU-1040 (large intestine, adherent) |  |  | 0.569 | 1.05 | 0.785 | 11.9 |
| SUP-B8 (B-cell leukaemia, suspension) | 0.989 | > 6.6 |  |  |  |  |
| TC-YIK (cervix, suspension) | 0.979 | > 6.6 |  |  |  |  |
| VMRC-LCD (lung adenocarcinoma, adherent) | 0.993 | > 6.6 |  |  |  |  |
| YMB-1-E (breast, adherent) |  |  | 0.859 | > 10.2 | 0.891 | > 20 |
| ZR-75-30 (breast, adherent) | 0.973 | > 6.6 |  |  |  |  |

From the supplement of paper PMC4967469
